Measured values as given in ChEMBL document CHEMBL4888484, “Replenishing the malaria drug discovery pipeline: Screening and hit evaluation of the MMV Hit Generation Library 1 (HGL1) against asexual blood stage Plasmodium falciparum ,using a nano luciferase reporter read-out” (2022).
Hit rate of the full screen: of about 150,000 compounds, about 540 (0.36%) showed an effect of 50% or more. The list shows a part of the results.

Each molecule was assayed on Plasmodium falciparum (assay: Primary screen in NF54 nanoGlo assay, in single point, at 2uM, 72h; a lower Z score goes with more inhibition). Conditions: timepoint 72 hour.
Format: functional, Erythrocyte

Row | SMILES | % Inhibition | Z score
1 | Cc1nnc2c(N(C)CCOc3cccc(F)c3)nccn12 | 9% | -1.17
2 | Cc1noc(N)c1C(=O)O[C@@H](C)C(=O)N1CCOCC1 | 1% | -0.07
3 | Cc1noc(C)c1-n1c(CCn2cccn2)n[nH]c1=O | 6% | -1.12
4 | O=c1c2cc(Cl)ccc2ncn1Cc1csc(Cc2ccc(Cl)cc2)n1 | 6% | -0.9
5 | Cn1cc(C(NC(=O)C2Cc3ccccc3C(=O)O2)C(C)(C)C)cn1 (configuration not stated) | -4% | 0.58
6 | O=C(CNc1ncc(Br)cn1)N1CCOCC1 | -2% | 0.19
7 | COc1cn(CC(=O)NCc2cccnc2)c(CO)cc1=O | 4% | -0.71
8 | CCOc1nc(N[C@@H](CO)c2ccco2)ncc1Br | -11% | 1.27
9 | COc1ccc(Cl)cc1C(=O)N1Cc2cccnc2C1 | 6% | -0.74
10 | O=C(C1CCOCC1)N1CCN(CCF)CC1 | -18% | 2.25
11 | COc1ccc(Cc2nc(-c3cccs3)no2)cc1 | -5% | 0.7
12 | COCCOCC(=O)Nc1cc(F)cc(F)c1 | 0% | 0.01
13 | CC1CCN(Cc2cccc(CNC(=O)c3ccoc3)c2)CC1 | 11% | -1.58
14 | O[C@H]1C[C@H](C(Nc2ncccc2C(F)(F)F)c2ccccn2)C1 (some centres not stated) | -10% | 1.12
15 | Cc1onc(N)c1S(=O)(=O)NCCn1ccnc1C(C)C | -6% | 0.83
16 | C[C@H]1CN(S(=O)(=O)CC(F)(F)F)CCN1S(=O)(=O)CC(F)(F)F | -10% | 1.23
17 | Cc1oc2c(c1C(=O)NC[C@H]1CN(S(C)(=O)=O)CCO1)C(=O)CCC2 | -7% | 0.73
18 | CC(C)(C)c1ccc(S(=O)(=O)Nc2ccc3c(c2)COC3)s1 | -12% | 2.34
19 | CC1(O)CCN(C(=O)C2COCCN2CC(F)(F)F)C1 (configuration not stated) | 7% | -0.97

Row | SMILES | % Inhibition | Z score
20 | Cc1cccc(S(=O)(=O)Nc2ccc(N3CCC(N4CCCCC4)CC3)c(C(=O)O)c2)c1 | 0% | -0.04
21 | NC(=O)NC(=O)CN(Cc1cccnc1)Cc1ccco1 | 32% | -3.61
22 | COCCCN(Cc1nc2ccccc2n1C)C1CCN(C)CC1 | -6% | 1.22
23 | Cc1nnsc1C(=O)N(Cc1cc(C2CC2)n(C)n1)C1CCCC1 | -5% | 0.89
24 | CC1CCCCC1NC(=O)COC(=O)c1cc(Cl)cn1C (configuration not stated) | 8% | -0.88
25 | O=C(Nc1nc2ccccc2[nH]1)C1CCN(c2cc3c(nn2)CCC3)CC1 | 31% | -0.83
26 | CN(C)S(=O)(=O)CCNC(=O)Nc1ccnn1C1CCCCC1 | -13% | 1.71
27 | NC(=O)c1cc[nH]c1[C@H]1CCCN(C(=O)c2cscn2)C1 | 11% | -1.26
28 | c1ccc(-c2cn(-c3ccccc3)c3ncnc(N4CCCC4)c23)cc1 | 35% | -0.93
29 | CN(C)c1ncccc1CNc1cnn(CC(=O)N2CCOC(C)(C)C2)c1 | -4% | 0.69
30 | N#Cc1ccnc(Oc2ccc3ccccc3c2)c1 | -5% | 0.94
31 | CCCC[C@H](C)C(=O)NCCc1ccc(C)nc1 | -5% | 0.86
32 | C[C@H]1CC(=O)Nc2ccccc2N1C(=O)Cc1ccc(Cl)cc1 | 4% | -0.45
33 | COCCN1C[C@@H](NC(=O)c2ccc3c(c2)CCCC3)CC1=O | -14% | 1.9
34 | Cc1cc(C(F)(F)F)nn1CC(=O)NCC(=O)N1CCCCCNC(=O)C[C@H]1c1ccccc1 | -13% | 2.03
35 | Cc1cccc(-c2noc(-c3ccoc3C)n2)c1 | -7% | 1.04
36 | C[C@H]1CCN(c2cc(C(=O)NC3(CC(N)=O)CCCCC3)ccn2)C1 | 0% | 0.06
37 | CCN(Cc1noc(C2CCC2)n1)Cc1nnc(C)s1 | 9% | -1.85
38 | Cc1ccsc1C(=O)Nc1ccc(N(C)C(=O)c2sccc2C)c(F)c1 | -18% | 1.85

Row | SMILES | % Inhibition | Z score
39 | CCC(NCc1ccncc1OCC1CCOC1)C1CC1C (configuration not stated) | -1% | 0.13
40 | Cc1cccc(-c2noc([C@@H]3CCCCN3)n2)c1 | 34% | -3.89
41 | Cc1ncsc1COC(=O)c1c(C(C)C)nn(C)c1Cl | 0% | -0.05
42 | COCc1nc(CN2C[C@H]3CC[C@@H](C2)N(Cc2c(C)noc2C)C3=O)no1 | -13% | 2.52
43 | COCCN1C[C@]2(CCCN(C(=O)COc3ccc(F)cc3)C2)CCC1=O | -5% | 0.9
44 | Fc1ccc(CN2CCc3[nH]nc(C4CC4)c3C2)c(F)c1F | 8% | -1.27
45 | O=C(NCc1cccnc1-n1cnc2ccccc21)c1cc(Cl)c[nH]c1=O | 6% | -0.74
46 | C[C@H](NC(=O)N1CCCC(c2cncn2C(C)(C)C)C1)C(=O)N(C)C (some centres not stated) | -13% | 1.51
47 | COCCN1C[C@@H](Cc2ccccc2-c2nnc(C)s2)CC1=O | -16% | 2.69
48 | COc1ccc(C(=O)CCC(=O)N2CC[C@](C)(O)[C@H](O)C2)cc1 | -4% | 0.5
49 | O=C1CCN(C(=O)c2cc3ccccc3[nH]2)CCOCCN1 | 1% | -0.2
50 | CCN1CCCc2cc(CN(CCN3CCOCC3)C(=O)Nc3ccc(C)c(C)c3)ccc21 | -9% | 1.43
51 | Cc1cccc(C)c1NC(=O)Cn1c(=O)cnc2cc(C(=O)NC3CCCC3)ccc21 | -9% | 0.99
52 | Cc1nn(C)cc1Cn1ncc2ccccc2c1=O | -21% | 2.41
53 | CCS(=O)(=O)N1CCc2nn(Cc3ccccc3)c(=O)n2CC1 | -18% | 2.32
54 | c1cn(-c2ccc3c(c2)OCO3)c(-c2cnc(N3CCOCC3)nc2)n1 | -12% | 1.09
55 | Cc1cc(S(=O)(=O)NCc2cccc(N)c2)c(C)o1 | -10% | 1.43
56 | COC[C@H](C)Nc1nc(-c2ccc(S(=O)(=O)N3CCCCCC3)cc2)cs1 | -38% | 4.48
